{"source": "the supplement of paper PMC11417369", "note": "± gives the standard deviation of the averaged measurements. Some of the results follow."}
{"tested_on": "PfAP2-EXP AP2 domain (GST-tagged)", "assay": "gcPBM binding intensity (ln(normalized median fluorescence intensity)); higher = stronger DNA binding", "outline": "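Plasmodium falciparum DNA-binding domains carrying a GST tag were expressed in E. coli and applied for 1 h, at about 25 μg on average, to an Agilent 4 × 180k array. The array held primer-extended double-stranded 36-bp intergenic genomic probes together with negative controls, and binding took place in 1× PBS with 1% milk, 0.2 mg/ml BSA, 0.5% salmon testes DNA and 0.03% Triton X-100. An Alexa488 anti-GST antibody detected bound protein, and the array was scanned at 488 nm. Binding intensity is taken as the highest Masliner-normalised natural-log median intensity across replicate spots of either probe orientation.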"}
{"sequence": "AAAGATGGAGTGATATGTACTGATATATTATTATAT [XGTACX_site6500]", "gcPBM binding intensity (ln)": "8.53 ± 0.3"}
{"sequence": "AAGCATAAAGTATATAGTACATATATATATATATAT [XGTACX_site2945]", "gcPBM binding intensity (ln)": "10.2 ± 0.26"}
{"sequence": "ATATTTTAATTATAAAGTACATAAAAATATATAAAC [XGTACX_site6705]", "gcPBM binding intensity (ln)": "8.58 ± 0.3"}
{"sequence": "ATATAGTAAAGTTATACACACATGAATTTTCCCATA [CACACA_site7457]", "gcPBM binding intensity (ln)": "8.32 ± 0.47"}
{"sequence": "TTTTTTATTGTGATACGTATATTATTTTATGATAAA [CACACA_negctrl_site1591]", "gcPBM binding intensity (ln)": "8.86 ± 0.34"}
{"sequence": "TAAAAATGTAAACACACACACATAAATATATTTTAT [CACACA_site5397]", "gcPBM binding intensity (ln)": "8.69 ± 0.41"}
{"sequence": "CTTTTGCCCAAAAAGGTACACACCACAATGTACATA [CACACA_site809]", "gcPBM binding intensity (ln)": "8.78 ± 0.4"}
{"sequence": "GTTAATATACATAAACGTACAGAATTATTATGAGTT [XGTACX_site5185]", "gcPBM binding intensity (ln)": "8.4 ± 0.36"}
{"sequence": "GCTTGGATATATTAATGTACTTATATATTATGTTGT [XGTACX_site3768]", "gcPBM binding intensity (ln)": "8.76 ± 0.35"}
{"sequence": "TAAATAATCGCATAATGTACATATAATTTTTTTTTT [XGTACX_site4880]", "gcPBM binding intensity (ln)": "8.31 ± 0.41"}
{"sequence": "AAAATTTTTTTTATTTGTACACAATTCGATACATAA [XGTACX_site4804]", "gcPBM binding intensity (ln)": "8.72 ± 0.45"}
{"sequence": "CCAATTCAAATATGCACACAAATTTGAAAACGATTA [CACACA_site3607]", "gcPBM binding intensity (ln)": "8.45 ± 0.45"}
{"sequence": "TTTGTTGTTGTGAAACGTACTCATAGGATGTTGTAT [XGTACX_site5716]", "gcPBM binding intensity (ln)": "8.57 ± 0.32"}
{"sequence": "ATATTTTCAATGTTCACACATACACAAAAAAAAAAA [CACACA_site6077]", "gcPBM binding intensity (ln)": "8.62 ± 0.59"}
{"sequence": "TAATATTTATCAAGTCGTACATAAAATGTATAATAA [XGTACX_site1103]", "gcPBM binding intensity (ln)": "8.51 ± 0.21"}
{"sequence": "ACAAAGAAATATAATACACACAAGAATATATTGGAT [CACACA_site3901]", "gcPBM binding intensity (ln)": "8.77 ± 0.35"}
{"sequence": "GTACAATAAGATGTAGCATGCCGTACCTTCACTACG [TGCATGCA_site235]", "gcPBM binding intensity (ln)": "8.76 ± 0.41"}
{"sequence": "TATACATATTTGTATTGTACATAAACTAAATCTTCA [XGTACX_site610]", "gcPBM binding intensity (ln)": "8.21 ± 0.36"}
{"sequence": "CAAATAACAAAATAATGTACATTTATACTTTTTTTT [XGTACX_site943]", "gcPBM binding intensity (ln)": "8.22 ± 0.41"}
{"sequence": "ATACTGTATGAAAGCACACATACTTATTACTAACAT [CACACA_site4164]", "gcPBM binding intensity (ln)": "8.77 ± 0.45"}
{"sequence": "TATCTCTACAAAATTTTATTCATTATTCATGTTATA [XGTACX_negctrl_site452]", "gcPBM binding intensity (ln)": "8.69 ± 0.28"}
{"sequence": "TCTAATAAAATAAATACATGCATACATACATACATA [TGCATGCA_site895]", "gcPBM binding intensity (ln)": "8.66 ± 0.11"}
{"sequence": "AAATAGAGAAATACAAGTACATACTAAACCTATCTA [XGTACX_site1334]", "gcPBM binding intensity (ln)": "8.38 ± 0.53"}
{"sequence": "AGGATTATATATTAATGTACCCGCGTTAATTTTTTT [XGTACX_site2878]", "gcPBM binding intensity (ln)": "8.51 ± 0.35"}
{"sequence": "TGAACAACTATTACTGCACACATTCTTACACTATAT [CACACA_site4533]", "gcPBM binding intensity (ln)": "8.95 ± 0.24"}
{"sequence": "TTTTTTAAACGTTTAAATAATTAAATATAAATAAAT [CACACA_negctrl_site1567]", "gcPBM binding intensity (ln)": "8.29 ± 0.49"}
{"sequence": "AAAAAAGAAACAATCGCATGCAATGTTAATGTACAT [TGCATGCA_site395]", "gcPBM binding intensity (ln)": "9.6 ± 0.33"}
{"sequence": "AGGTGTCATATATGCACACAAAAGTAACACGCACCT [CACACA_site472]", "gcPBM binding intensity (ln)": "8.99 ± 0.18"}
{"sequence": "TACGCAAAATAAAATCAAAATATAAGGAAAAAAAAA [TGCATGCA_negctrl_site578]", "gcPBM binding intensity (ln)": "8.41 ± 0.42"}
{"sequence": "ACATTTATTTTGAATGGTACACTATTATTATGAAAT [XGTACX_site4384]", "gcPBM binding intensity (ln)": "8.36 ± 0.38"}
{"sequence": "GACCTACAAAAAGGCACACATATACTCATACATACA [CACACA_site5232]", "gcPBM binding intensity (ln)": "8.6 ± 0.38"}
{"sequence": "GTGTAATGCTTATCGGTGCATATATATATATATATA", "gcPBM binding intensity (ln)": "10.1 ± 0.36"}
{"sequence": "GATAATTTTTGCATATGTACTTAAAAATTAAAAATT [XGTACX_site7037]", "gcPBM binding intensity (ln)": "8.81 ± 0.39"}
{"sequence": "AAAAAAAAAAAAGGTACTACACACTATTATCAATAG [XGTACX_site161]", "gcPBM binding intensity (ln)": "8.38 ± 0.49"}
{"sequence": "AATTCTTTTTTCAACACACACACACCCGAAAATATA [CACACA_site3111]", "gcPBM binding intensity (ln)": "8.87 ± 0.53"}
{"sequence": "ATATAGGTAATATTTTGTACATATTTTTGGGGTAGT [XGTACX_site5634]", "gcPBM binding intensity (ln)": "9.41 ± 0.94"}
{"sequence": "AGATACTTTTTTAAAAGTACAAAAACTTTCGATATA [XGTACX_site959]", "gcPBM binding intensity (ln)": "8.3 ± 0.38"}
{"sequence": "ATATTTTTTGTATGTTGTACATAAAATATACATTTT [XGTACX_site6815]", "gcPBM binding intensity (ln)": "8.36 ± 0.23"}
{"sequence": "CATACATACATACATACACACATACATATATATATA [CACACA_site8388]", "gcPBM binding intensity (ln)": "9.91 ± 0.14"}
{"sequence": "TCTAAAATAGTCCAGAGTACAAGAAACCATAATATA [XGTACX_site5237]", "gcPBM binding intensity (ln)": "8.54 ± 0.33"}
{"sequence": "ATAAAAATATAAACATGTACATAAAAATCTATATAT [XGTACX_site405]", "gcPBM binding intensity (ln)": "8.85 ± 0.36"}
{"sequence": "TTGCTTATATTTCTAAAATGTAAAAGACACAAAGGT [XGTACX_negctrl_site225]", "gcPBM binding intensity (ln)": "8.85 ± 0.29"}
{"sequence": "TTCTAATATATGCATACACACAAATGTGAATATACA [CACACA_site2142]", "gcPBM binding intensity (ln)": "8.6 ± 0.3"}
{"sequence": "AAAAATGCAATTTAATGTACACATAAGATGTTATTT [XGTACX_site6853]", "gcPBM binding intensity (ln)": "8.37 ± 0.35"}
